PMC4440778, “Structure-Activity Relationship and Mode of Action of a Frog Secreted Antibacterial Peptide B1CTcu5 Using Synthetically and Modularly Modified or Deleted (SMMD) Peptides” (PLoS ONE, 2015)

Tests used:
MRSA ATCC 43300 = conditions: LB broth, 10^6 CFU/ml, 24 h 37°C, OD600, 100% growth inhibition, triplicate
VRE ATCC 29212 = conditions: LB broth, 10^6 CFU/ml, 24 h 37°C, OD600, 100% growth inhibition, triplicate

| Compound | MIC (MRSA ATCC 43300) | MIC (VRE ATCC 29212) |
| --- | --- | --- |
| CC[C@H](C)[C@@H]1NC(=O)[C@H](CCCCN)NC(=O)[C@@H](NC(=O)[C@H](CC(C)C)NC(=O)[C@@H](NC(=O)[C@H](CCC(N)=O)NC(=O)[C@@H]2CCCN2C(=O)[C@H](CC(C)C)NC(=O)[C@H](Cc2ccccc2)NC(=O)[C@H](CC(N)=O)NC(=O)[C@H](C)NC(=O)[C@H](C)NC(=O)[C@@H](N)CC(C)C)[C@@H](C)CC)CSSC[C@@H](C(N)=O)NC(=O)[C@H](CCCCN)NC(=O)[C@H](CCCNC(=N)N)NC(=O)[C@H](C)NC1=O [B1CTcu5-LIAG] (H-LAANFLPQILCKIARKC-NH2; disulfide 11-17) | 50 µg/mL (≈ 26.3 µM) | 100 µg/mL (≈ 52.6 µM) |
| CC[C@H](C)[C@H](N)C(=O)N[C@@H](C)C(=O)NCC(=O)N[C@@H](CC(C)C)C(=O)N[C@@H](C)C(=O)N[C@@H](C)C(=O)N[C@@H](CC(N)=O)C(=O)N[C@@H](Cc1ccccc1)C(=O)N[C@@H](CC(C)C)C(=O)N1CCC[C@H]1C(=O)N[C@@H](CCC(N)=O)C(=O)N[C@H](C(=O)N[C@@H](CC(C)C)C(=O)N[C@H]1CSSC[C@@H](C(N)=O)NC(=O)[C@H](CCCCN)NC(=O)[C@H](CCCNC(=N)N)NC(=O)[C@H](C)NC(=O)[C@H]([C@@H](C)CC)NC(=O)[C@H](CCCCN)NC1=O)[C@@H](C)CC [B1CTcu5-L] (H-IAGLAANFLPQILCKIARKC-NH2; disulfide 14-20) | >100 µg/mL | – |
| CC[C@H](C)[C@H](NC(=O)[C@H](CCCCN)NC(=O)[C@H](CSCNC(C)=O)NC(=O)[C@H](CC(C)C)NC(=O)[C@@H](NC(=O)[C@H](CCC(N)=O)NC(=O)[C@@H]1CCCN1C(=O)[C@H](CC(C)C)NC(=O)[C@H](Cc1ccccc1)NC(=O)[C@H](CC(N)=O)NC(=O)[C@H](C)NC(=O)[C@H](C)NC(=O)[C@H](CC(C)C)NC(=O)CNC(=O)[C@H](C)NC(=O)[C@@H](NC(=O)[C@@H](N)CC(C)C)[C@@H](C)CC)[C@@H](C)CC)C(=O)N[C@@H](C)C(=O)N[C@@H](CCCNC(=N)N)C(=O)N[C@@H](CCCCN)C(=O)N[C@@H](CS)C(N)=O [B1CTcu5C (Acm)] (H-LIAGLAANFLPQILC(Acm)KIARKC-NH2) | 50 µg/mL (≈ 21.5 µM) | 100 µg/mL (≈ 43 µM) |
| CC[C@H](C)[C@@H]1NC(=O)[C@H](CCCCN)NC(=O)[C@@H](NC(=O)[C@H](CC(C)C)NC(=O)[C@@H](NC(=O)[C@H](CCC(N)=O)NC(=O)[C@@H]2CCCN2C(=O)[C@H](CC(C)C)NC(=O)[C@H](Cc2ccccc2)NC(=O)[C@H](CC(N)=O)NC(=O)[C@H](C)NC(=O)[C@H](C)NC(=O)[C@H](CC(C)C)NC(=O)CNC(=O)[C@H](C)NC(=O)[C@@H](NC(=O)[C@@H](N)Cc2c[nH]cn2)[C@@H](C)CC)[C@@H](C)CC)CSSC[C@@H](C(N)=O)NC(=O)[C@H](CCCCN)NC(=O)[C@H](CCCNC(=N)N)NC(=O)[C@H](C)NC1=O [B1CTcu5H] (H-HIAGLAANFLPQILCKIARKC-NH2; disulfide 15-21) | 100 µg/mL (≈ 43.9 µM) | – |
| CC[C@H](C)[C@@H]1NC(=O)[C@H](CCCCN)NC(=O)[C@@H](NC(=O)[C@H](CC(C)C)NC(=O)[C@@H](NC(=O)[C@H](CCC(N)=O)NC(=O)[C@@H]2CCCN2C(=O)[C@H](CC(C)C)NC(=O)[C@H](Cc2ccccc2)NC(=O)[C@H](CC(N)=O)NC(=O)[C@H](C)NC(=O)[C@H](C)NC(=O)[C@H](CC(C)C)NC(=O)CNC(=O)[C@H](C)NC(=O)[C@@H](NC(=O)[C@@H](N)CCCCN)[C@@H](C)CC)[C@@H](C)CC)CSSC[C@@H](C(N)=O)NC(=O)[C@H](CCCCN)NC(=O)[C@H](CCCNC(=N)N)NC(=O)[C@H](C)NC1=O [B1CTcu5K] (H-KIAGLAANFLPQILCKIARKC-NH2; disulfide 15-21) | >100 µg/mL | 50 µg/mL (≈ 22 µM) |
| CC[C@H](C)[C@@H]1NC(=O)[C@H](CCCCN)NC(=O)[C@@H](NC(=O)[C@H](CC(C)C)NC(=O)[C@@H](NC(=O)[C@H](CCC(N)=O)NC(=O)[C@@H]2CCCN2C(=O)[C@H](CC(C)C)NC(=O)[C@H](Cc2ccccc2)NC(=O)[C@H](CC(N)=O)NC(=O)[C@H](C)NC(=O)[C@H](C)NC(=O)[C@H](CC(C)C)NC(=O)CNC(=O)[C@H](C)NC(=O)[C@@H](NC(=O)[C@@H](N)CCCNC(=N)N)[C@@H](C)CC)[C@@H](C)CC)CSSC[C@@H](C(N)=O)NC(=O)[C@H](CCCCN)NC(=O)[C@H](CCCNC(=N)N)NC(=O)[C@H](C)NC1=O [B1CTcu5R] (H-RIAGLAANFLPQILCKIARKC-NH2; disulfide 15-21) | 25 µg/mL (≈ 10.9 µM) | 50 µg/mL (≈ 21.8 µM) |
| CC[C@H](C)[C@@H]1NC(=O)[C@H](CCCCN)NC(=O)[C@@H](NC(=O)[C@H](CC(C)C)NC(=O)[C@@H](NC(=O)[C@H](CCC(N)=O)NC(=O)[C@@H]2CCCN2C(=O)[C@H](CC(C)C)NC(=O)[C@H](Cc2ccccc2)NC(=O)[C@H](CC(N)=O)NC(=O)[C@H](C)NC(=O)[C@H](C)NC(=O)[C@H](CC(C)C)NC(=O)CNC(=O)[C@H](C)NC(=O)[C@@H](NC(=O)[C@@H](N)Cc2c[nH]c3ccccc23)[C@@H](C)CC)[C@@H](C)CC)CSSC[C@@H](C(N)=O)NC(=O)[C@H](CCCCN)NC(=O)[C@H](CCCNC(=N)N)NC(=O)[C@H](C)NC1=O [B1CTcu5W] (H-WIAGLAANFLPQILCKIARKC-NH2; disulfide 15-21) | 25 µg/mL (≈ 10.7 µM) | 50 µg/mL (≈ 21.5 µM) |
| CC[C@H](C)[C@@H]1NC(=O)[C@H](CCCCN)NC(=O)[C@@H](NC(=O)[C@H](CC(C)C)NC(=O)[C@@H](NC(=O)[C@H](CCC(N)=O)NC(=O)[C@@H]2CCCN2C(=O)[C@H](CC(C)C)NC(=O)[C@H](Cc2ccccc2)NC(=O)[C@H](CC(N)=O)NC(=O)[C@H](C)NC(=O)[C@H](C)NC(=O)[C@H](CC(C)C)NC(=O)CNC(=O)[C@H](C)NC(=O)[C@@H](NC(=O)[C@@H](N)CC(C)C)[C@@H](C)CC)[C@@H](C)CC)CSSC[C@@H](C(N)=O)NC(=O)[C@H](CCCCN)NC(=O)[C@H](CCCNC(=N)N)NC(=O)[C@H](C)NC1=O [Cyclic B1CTcu5] (H-LIAGLAANFLPQILCKIARKC-NH2; disulfide 15-21) | >100 µg/mL | 100 µg/mL (≈ 44.4 µM) |
| CC[C@@H](C)[C@@H](NC(=O)[C@H](N)CC(C)C)C(=O)N[C@H](C)C(=O)NCC(=O)N[C@H](CC(C)C)C(=O)N[C@H](C)C(=O)N[C@H](C)C(=O)N[C@H](CC(N)=O)C(=O)N[C@H](Cc1ccccc1)C(=O)N[C@H](CC(C)C)C(=O)N1CCC[C@@H]1C(=O)N[C@H](CCC(N)=O)C(=O)N[C@@H](C(=O)N[C@H](CC(C)C)C(=O)N[C@@H]1CSSC[C@H](C(N)=O)NC(=O)[C@@H](CCCCN)NC(=O)[C@@H](CCCNC(=N)N)NC(=O)[C@@H](C)NC(=O)[C@@H]([C@H](C)CC)NC(=O)[C@@H](CCCCN)NC1=O)[C@H](C)CC [DB1CTcu5] (H-[dL][dI][dA]G[dL][dA][dA][dN][dF][dL][dP][dQ][dI][dL][dC][dK][dI][dA][dR][dK][dC]-NH2; disulfide 15-21) | 25 µg/mL (≈ 11.1 µM) | 50 µg/mL (≈ 22.2 µM) |
| CC[C@H](C)[C@H](NC(=O)[C@H](CCCCN)NC(=O)[C@H](CS)NC(=O)[C@H](CC(C)C)NC(=O)[C@@H](NC(=O)[C@H](CCC(N)=O)NC(=O)[C@@H]1CCCN1C(=O)[C@H](CC(C)C)NC(=O)[C@H](Cc1ccccc1)NC(=O)[C@H](CC(N)=O)NC(=O)[C@H](C)NC(=O)[C@H](C)NC(=O)[C@H](CC(C)C)NC(=O)CNC(=O)[C@H](C)NC(=O)[C@@H](NC(=O)[C@@H](N)CC(C)C)[C@@H](C)CC)[C@@H](C)CC)C(=O)N[C@@H](C)C(=O)N[C@@H](CCCNC(=N)N)C(=O)N[C@@H](CCCCN)C(=O)N[C@@H](CS)C(N)=O [Linear B1CTcu5] (H-LIAGLAANFLPQILCKIARKC-NH2) | >100 µg/mL | 100 µg/mL (≈ 44.3 µM) |
| LIAGLAANFLPQILCKIARK-NH2 [B1CTcu5-C] | 50 µg/mL | 50 µg/mL |

In brackets after ≈: the same amount, converted by molar mass. Where a SMILES comes first, the peptide text is derived from it. Bridges are numbered along the chain shown (N, C = ends). Where no end group is shown, it is not given here. [ ]: non-standard residue; d: D form. The star is where a group is joined. Acm = CC(=O)NC*
